This is one part of the list.

The target of this assay is T1, MBP-FoxP1dN (Mus musculus, UniProt P58462 326-579).
T1 sequence: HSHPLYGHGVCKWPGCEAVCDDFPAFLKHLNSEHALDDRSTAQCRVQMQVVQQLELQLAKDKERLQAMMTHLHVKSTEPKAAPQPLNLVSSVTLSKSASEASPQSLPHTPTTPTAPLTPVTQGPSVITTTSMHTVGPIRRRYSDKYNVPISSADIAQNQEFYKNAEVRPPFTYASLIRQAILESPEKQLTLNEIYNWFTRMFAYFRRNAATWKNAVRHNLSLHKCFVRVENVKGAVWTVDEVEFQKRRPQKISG
As to the kind of experiment: PD-seq (MBP pull-down with sequencing); 20 mM Tris-HCl pH 7.5, 100 mM NaCl, 1.5 mM MgCl2, 0.4 uM protein, 0.1 uM dsDNA library, 30 min, room temperature, amylose pull-down; high values mean tight binding. Particulars: protein: recombinant; tags: His6-MBP; chain copies: 2; dsDNA, one strand shown. In a few lines: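 E. coli-expressed mouse FoxP3 or FoxP1 fragment, N-terminus removed and tagged with His6-MBP, was used at 0.4 µM against 0.1 µM of a Klenow-filled degenerate double-stranded DNA library. After 30 min at room temperature in Tris pH 7.5 buffer with NaCl and MgCl2, complexes were pulled down on amylose resin and washed three times. Binding is pull-down over input reads-per-million enrichment from pooled replicates of the proteinase K-released, PCR-barcoded, Illumina-sequenced DNA.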
With “GATGATTGTTCTCCCAGCTGATGAATTCAGTATTTCGAGTAAACAAATTTTCCTAATCTTTCTGTTCAAGCGCCATCTAC”, the binding signal is 0.942 RPM ratio (pull-down/input).
With “GATGATTGTTCTCCCAGCTGATGAATTGATATCCTCGAGTAAACAAATTTTCCTAATCTTTCTGTTCAAGCGCCATCTAC”, the binding signal is 0.989 RPM ratio (pull-down/input).
In the case of “GATGATTGTTCTCCCAGCTGATGAATTGATAGTCTCGAGTAAACAAATTTTCCTAATCTTTCTGTTCAAGCGCCATCTAC” it was 0.956 RPM ratio (pull-down/input); in that of “GATGATTGTTCTCCCAGCTGATGAATTGCCGACATCGAGTAAACAAATTTTCCTAATCTTTCTGTTCAAGCGCCATCTAC”, 1.05 RPM ratio (pull-down/input).
As for “GATGATTGTTCTCCCAGCTGATGAATTGGATCACTCGAGTAAACAAATTTTCCTAATCTTTCTGTTCAAGCGCCATCTAC”, the binding signal was 0.896 RPM ratio (pull-down/input).
The figure for “GATGATTGTTCTCCCAGCTGATGAATTATCAAAGTCGAGTAAACAAATTTTCCTAATCTTTCTGTTCAAGCGCCATCTAC” is 0.982 RPM ratio (pull-down/input); for “GATGATTGTTCTCCCAGCTGATGAATTGTACGGTTCGAGTAAACAAATTTTCCTAATCTTTCTGTTCAAGCGCCATCTAC” it is 0.973 RPM ratio (pull-down/input); for “GATGATTGTTCTCCCAGCTGATGAATTAGCTCCTTCGAGTAAACAAATTTTCCTAATCTTTCTGTTCAAGCGCCATCTAC” it is 0.814 RPM ratio (pull-down/input).
The figure for “GATGATTGTTCTCCCAGCTGATGAATTCCGTATGTCGAGTAAACAAATTTTCCTAATCTTTCTGTTCAAGCGCCATCTAC” is 0.847 RPM ratio (pull-down/input).
For the sequence “GATGATTGTTCTCCCAGCTGATGAATTATTTCGGTCGAGTAAACAAATTTTCCTAATCTTTCTGTTCAAGCGCCATCTAC”, the binding signal is 1.04 RPM ratio (pull-down/input).
“GATGATTGTTCTCCCAGCTGATGAATTCAGGAGGTCGAGTAAACAAATTTTCCTAATCTTTCTGTTCAAGCGCCATCTAC”: the binding signal was 0.735 RPM ratio (pull-down/input).
For “GATGATTGTTCTCCCAGCTGATGAATTGTGCCCGTCGAGTAAACAAATTTTCCTAATCTTTCTGTTCAAGCGCCATCTAC”, the binding signal was 0.933 RPM ratio (pull-down/input).
Take “GATGATTGTTCTCCCAGCTGATGAATTTAGGCGTTCGAGTAAACAAATTTTCCTAATCTTTCTGTTCAAGCGCCATCTAC”: the binding signal is 0.984 RPM ratio (pull-down/input).
On to “GATGATTGTTCTCCCAGCTGATGAATTTCGGCAATCGAGTAAACAAATTTTCCTAATCTTTCTGTTCAAGCGCCATCTAC”, for which the binding signal is 1.03 RPM ratio (pull-down/input).
In the case of “GATGATTGTTCTCCCAGCTGATGAATTGTATCCTTCGAGTAAACAAATTTTCCTAATCTTTCTGTTCAAGCGCCATCTAC” it was 1.17 RPM ratio (pull-down/input); in that of “GATGATTGTTCTCCCAGCTGATGAATTGCTCGAGTCGAGTAAACAAATTTTCCTAATCTTTCTGTTCAAGCGCCATCTAC”, 0.899 RPM ratio (pull-down/input).
The figure for “GATGATTGTTCTCCCAGCTGATGAATTCGCAATGTCGAGTAAACAAATTTTCCTAATCTTTCTGTTCAAGCGCCATCTAC” is 0.975 RPM ratio (pull-down/input).
Take “GATGATTGTTCTCCCAGCTGATGAATTCCGTCAATCGAGTAAACAAATTTTCCTAATCTTTCTGTTCAAGCGCCATCTAC”: the binding signal was 0.997 RPM ratio (pull-down/input).
For the sequence “GATGATTGTTCTCCCAGCTGATGAATTACCCCATTCGAGTAAACAAATTTTCCTAATCTTTCTGTTCAAGCGCCATCTAC”, the binding signal was 1.08 RPM ratio (pull-down/input).
For “GATGATTGTTCTCCCAGCTGATGAATTTAGTGGTTCGAGTAAACAAATTTTCCTAATCTTTCTGTTCAAGCGCCATCTAC”, the binding signal was 1.05 RPM ratio (pull-down/input).
In the case of “GATGATTGTTCTCCCAGCTGATGAATTGGTATAGTCGAGTAAACAAATTTTCCTAATCTTTCTGTTCAAGCGCCATCTAC” it was 1.05 RPM ratio (pull-down/input); in that of “GATGATTGTTCTCCCAGCTGATGAATTGAATCGTTCGAGTAAACAAATTTTCCTAATCTTTCTGTTCAAGCGCCATCTAC”, 0.877 RPM ratio (pull-down/input); in that of “GATGATTGTTCTCCCAGCTGATGAATTAGCTAGGTCGAGTAAACAAATTTTCCTAATCTTTCTGTTCAAGCGCCATCTAC”, 0.861 RPM ratio (pull-down/input).
The figure for “GATGATTGTTCTCCCAGCTGATGAATTGTCCCCGTCGAGTAAACAAATTTTCCTAATCTTTCTGTTCAAGCGCCATCTAC” is 0.999 RPM ratio (pull-down/input); for “GATGATTGTTCTCCCAGCTGATGAATTTCGCCCTTCGAGTAAACAAATTTTCCTAATCTTTCTGTTCAAGCGCCATCTAC” it is 0.806 RPM ratio (pull-down/input); for “GATGATTGTTCTCCCAGCTGATGAATTTACGTTGTCGAGTAAACAAATTTTCCTAATCTTTCTGTTCAAGCGCCATCTAC” it is 1.44 RPM ratio (pull-down/input).
In the case of “GATGATTGTTCTCCCAGCTGATGAATTGAGGCTTTCGAGTAAACAAATTTTCCTAATCTTTCTGTTCAAGCGCCATCTAC” it was 0.909 RPM ratio (pull-down/input); in that of “GATGATTGTTCTCCCAGCTGATGAATTCTGTCTATCGAGTAAACAAATTTTCCTAATCTTTCTGTTCAAGCGCCATCTAC”, 1.04 RPM ratio (pull-down/input); in that of “GATGATTGTTCTCCCAGCTGATGAATTCACCGAGTCGAGTAAACAAATTTTCCTAATCTTTCTGTTCAAGCGCCATCTAC”, 0.819 RPM ratio (pull-down/input).
Turning to “GATGATTGTTCTCCCAGCTGATGAATTAATATTCTCGAGTAAACAAATTTTCCTAATCTTTCTGTTCAAGCGCCATCTAC”, the binding signal is 0.907 RPM ratio (pull-down/input).
In the case of “GATGATTGTTCTCCCAGCTGATGAATTACCAAGCTCGAGTAAACAAATTTTCCTAATCTTTCTGTTCAAGCGCCATCTAC”, the binding signal was 0.915 RPM ratio (pull-down/input).
In the case of “GATGATTGTTCTCCCAGCTGATGAATTAAATTCTTCGAGTAAACAAATTTTCCTAATCTTTCTGTTCAAGCGCCATCTAC” it was 0.933 RPM ratio (pull-down/input).

For the origin of these results see article PMC12820563, “FoxP3 forms a head-to-head dimer in vivo and stabilizes its multimerization on adjacent microsatellites”.
